The values that follow come from the supplement of paper PMC11417369.

± gives the standard deviation of the averaged measurements. The list shows a part of the results.

The test relates to PfAP2-LT AP2 domain (GST-tagged). Description: gcPBM binding intensity (ln(normalized median fluorescence intensity)); higher = stronger DNA binding. The method, boiled down: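 The binding buffer was 1× PBS containing 1% milk, 0.2 mg/ml BSA, 0.5% salmon testes DNA and 0.03% Triton X-100. In it, GST-tagged P. falciparum DNA-binding domains expressed in E. coli were applied for 1 h to an Agilent 4 × 180k array of primer-extended double-stranded 36-bp intergenic genomic probes plus negative controls. Binding intensity, read with Alexa488 anti-GST antibody and a 488 nm scan, is the highest Masliner-normalised natural-log median intensity across replicate spots of either probe orientation.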
On to “AAAAAAAAATTAGGGGTGCCATTTGCTGCTGTGCTT [GTGCAC_site9913]”, for which the “gcPBM binding intensity (ln)” value was 8.87 ± 0.26.
Then “TTTTGTATTTCTCACACACACATAAGTAAACAATAA [CACACA_site5105]”, with 9.18 ± 0.33; and “TAGTAAAAGATATACACACACCAAAAAATATAATTA [CACACA_site7142]”, with 9.39 ± 0.4; and “AATTATATTCAAAATGGTACACACAATATTTAATTG [XGTACX_site5521]”, with 8.79 ± 0.49.
The value for “CAAAGCATTTTATCTACACACATATATAAATAAATA [CACACA_site7500]” was 8.94 ± 0.33.
The value for “ATCTTTATTTTTAGCGCACACATAAAATAATAATAA [CACACA_site3458]” was 9.04 ± 0.38; that for “TATTTTAACTTTTTTTCCTTTATTCATTTTTTTTTC [CACACA_negctrl_site971]” was 8.54 ± 0.53.
With “TTTTTTTTTTTATGTGCACACAAAAGATGCTTATAT [CACACA_site2347]”, the “gcPBM binding intensity (ln)” value came out at 9.15 ± 0.45.
The value for “TGATGCAAGATATATACACACATATAAATATAAATA [CACACA_site7429]” was 9.16 ± 0.43; that for “TTATGATAACTTTGCACACACTTAGGAAAAGTTATG [CACACA_site6836]” was 9.01 ± 0.35; that for “TGATTATATAAAAAAAAGAAAAAAAAAAAAAAAAAA [CACACA_negctrl_site819]” was 8.27 ± 0.42.
The value for “ATGCATCATTTATTTGCACACCTATTATATACTTTT [CACACA_site2097]” was 9.2 ± 0.39; that for “TATATATATATAATATGTACATATATATATTCTTAA [XGTACX_site6154]” was 8.7 ± 0.34; that for “ATAATTCATGTTTAGTGTACAAAAAATTAAAGCAAC [XGTACX_site8891]” was 8.93 ± 0.41.
The value for “AAATAATTTATATGTAGTACATGTTGTAGATAATTT [XGTACX_site1031]” was 8.79 ± 0.39; that for “GATATAGATATTAATTGTACATATTATTTATTGTTA [XGTACX_site846]” was 8.76 ± 0.44.
Take “TTCTAAAAAGGGTGTACACAAACGAATGGAAAATAA [CACACA_site5483]”: the “gcPBM binding intensity (ln)” value is 9.03 ± 0.43.
Then “ATAATTTTTATTTGTACACACATACAGATATATTAT [CACACA_site4701]”, with 9.2 ± 0.42; and “GATATGTACTAATACACACACATATATATATATATA [CACACA_site1022]”, with 10.2 ± 0.23; and “AATAATACGTTAAATGTTCTTACAAGTTGGTTTCAT [CACACA_negctrl_site1029]”, with 8.76 ± 0.42.
The value for “TAAAGGTGTAAAACTGCATGCTGGAGAAAAGTAAAA [TGCATGCA_site591]” was 8.98 ± 0.54.
Then “ATTATATAATATAATGCATGTGTTAATGAAAAATCT [TGCATGCA_site426]”, with 8.75 ± 0.44; and “AAAAAAAAATTTGTATCACACACGTATTATAAAAAA [CACACA_site6]”, with 8.86 ± 0.47; and “AAAAAAAAAAAAAAGTGTACCTTATTATACTTTAAT [XGTACX_site8439]”, with 8.46 ± 0.42.
With “CACACTAAAAGACACACACACACACGCATATAAATA [CACACA_site7874]”, the “gcPBM binding intensity (ln)” value was 10.3 ± 0.4.
“AAATATATATATATATGTACACACACACATATAAAT [XGTACX_site847]”: the “gcPBM binding intensity (ln)” value worked out at 9.87 ± 0.32.
Then “TTGTAGGAATTTATTTTGACTGATAATTAATACGTT [GTGCAC_negctrl_site46]”, with 8.58 ± 0.55; and “TAGTGTAAAAAATACGCATGTGTACAAATATAATAA [TGCATGCA_site498]”, with 9.27 ± 0.5; and “ATTAAACATACATATACACACACACCCACCCACCCA [CACACA_site8057]”, with 10.22 ± 0.071.
Then “TAACTTCAAACAAAATATGGTAAAAGTGGTTGAAAA [CACACA_negctrl_site42]”, with 8.71 ± 0.42.
Turning to “AAAATACCCGGACACACACACATATATATATATATT [CACACA_site6137]”, the “gcPBM binding intensity (ln)” value worked out at 9.88 ± 0.49.
The value for “CCATAGATATTTTATACACACATATAATATATTAAT [CACACA_site373]” was 8.91 ± 0.42; that for “GATGATTCAATTTATGCACACTAAAAATTAATTATA [CACACA_site4308]” was 8.61 ± 0.47.
Then “ACCAAAAGGGGATGTAGTACAATATGATTAGAAGAA [XGTACX_site3773]”, with 8.95 ± 0.75; and “ATAATCTGACAAATGTGTACACATATATATATATAT [XGTACX_site2379]”, with 9.66 ± 0.55.
Turning to “AAATAATATATTCCTTGTACTTATTTCAATGAATTC [XGTACX_site7719]”, the “gcPBM binding intensity (ln)” value is 8.7 ± 0.49.
Then “AAGAATCACCAAATATGTACACACCTTAACATGTTT [XGTACX_site4272]”, with 9.15 ± 0.38.
The value for “CCACTGTATGAATGCACACATTCATAGAATTGCTAT [CACACA_site2676]” was 9.04 ± 0.36; that for “TAATAAGGTTACAACAAACACACAAAGGAATATACA [CACACA_site4089]” was 9.14 ± 0.45; that for “TAATTTGTTAAAGGTTCACATATGGTATATACTTCT [XGTACX_negctrl_site292]” was 8.85 ± 0.57.
The value for “GATATGATTAACTTATGTTATTCTTGATGGTTTCTT [GTGCAC_negctrl_site411]” was 8.9 ± 0.48; that for “TATCACAAAATATACTGTACATACAGGCAGTAATAT [XGTACX_site2487]” was 8.85 ± 0.4; that for “TTATAAAACCATGTCATCAACATAGGCACAAAAATG [CACACA_negctrl_site1160]” was 8.72 ± 0.35.
On to “ATATGTACATATCTCATGCACTTAACAAAAAAAAAG [GTGCAC_site9898]”, for which the “gcPBM binding intensity (ln)” value stood at 8.7 ± 0.45.
